PubChem BioAssay AID686978 (National Center for Advancing Translational Sciences (NCATS), 2013)
The campaign covered roughly 420,000 compounds. About 64,000 (15%) were called active. The shares of active, inactive and inconclusive entries below differ from those in the screen. Calls follow the shape of the dose curve; as a rule, active = well fitted inhibition curve with a large enough effect; inconclusive = small, poorly fitted or top-dose-only effect; inactive = flat fitted curve, though single readings scatter. No potency is given beside an inconclusive call; the fits are too rough.

Assay: qHTS for Inhibitors of human tyrosyl-DNA phosphodiesterase 1 (TDP1): qHTS in cells in absence of CPT; also: nearly all actives have a fitted effect of over 55% in size
Details: DT40 Tdp1-/- hTDP1 cells, no CPT, ATP luminescence, 48 h; series mostly up to 46.2 µM
In short: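 Readout: luminescence from CellTiter-Glo after 30 min in the dark at RT. Cells: DT40 Tdp1-/- with stable hTDP1, 400/well. Exposure: compounds alone, ≥48 hr, 37 °C.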
Potency is read from the fitted curve at half-maximal effect; tags tell the direction and shape of the fitted curve.

| Compound | Potency |
| --- | --- |
| COCCN(CC(=O)Nc1cccc(C)c1C)C(=O)c1oc2ccccc2c1C | inconclusive [inhibitor, single point] |
| COc1ccc(NC(=O)CN2CCN(CC(=O)Nc3ccccc3Cl)CC2)cc1 | inconclusive [inhibitor, single point] |
| Cc1ccc(S(=O)(=O)N(CC(=O)N2CCC(C)CC2)Cc2ccccc2F)cc1 | inconclusive [inhibitor, single point] |
| COc1ccc(NC(=O)CSc2nc3c(c(=O)n2-c2ccc(F)cc2)SCC3)c(OC)c1 | inactive |
| Cc1noc(C)c1-c1ccc(C(=O)Nc2cccc(NS(C)(=O)=O)c2)c2occc12 | inconclusive [inhibitor, single point] |
| CC(C)(C)C(=O)Nc1ccc(Cl)c(-c2nc3ccccc3[nH]2)c1 | inconclusive [inhibitor, single point] |
| O=C(Cn1c(=O)n(Cc2ccc(C(=O)NCc3ccccc3Cl)cc2)c(=O)c2ccccc21)Nc1ccc(F)cc1 | inconclusive [inhibitor, full curve, poor fit] |
| C[C@H](CO)N1C[C@H](C)[C@@H](CN(C)Cc2ccc(Oc3ccccc3)cc2)Oc2c(NS(=O)(=O)c3cn(C)cn3)cccc2C1=O | inconclusive [inhibitor, single point] |
| O=C(CSc1ccc(-c2ccccn2)nn1)N1CCc2ccccc21 | inconclusive [inhibitor, single point] |
| Cc1ccccc1NC(=S)NC(=O)COc1ccccc1C | inactive |
| COc1cc(-c2cc(C(=O)Nc3ccc(S(=O)(=O)NCc4ccco4)cc3)c3ccccc3n2)cc(OC)c1OC | active: 2.91 µM |
| O=C(Cc1ccccc1)c1c[nH]c(C(=O)C(Cl)(Cl)Cl)c1 | active: 6.51 µM |
| Cc1ccc2c(cnn2C(=O)CCC(=O)N2CCCCC2C)c1 (stereo not drawn) | inactive |
| CC(=O)c1ccc(S(=O)(=O)N2CCC(Oc3ccc(-n4cnnn4)cc3)CC2)cc1 | inactive |
| CC(C)Oc1cc(F)ccc1-c1cc(C(=O)NC2CCCCC2)[nH]n1 | inconclusive [inhibitor, single point] |
| O=C(CSc1nnc(C2CC2)n1Cc1ccccc1)c1ccc(S(=O)(=O)N2CCOCC2)cc1 | inconclusive [inhibitor, single point] |
| COCCN(Cc1cc2c(C)cc(C)cc2nc1Cl)C(=O)c1ccccc1F | active: 8.2 µM |
| CCN(CC)C(=O)[C@H]1C[C@H](CC(=O)NCc2ccco2)C(=O)N2CCc3c([nH]c4ccc(Cl)cc34)[C@]12C | active: 16.4 µM |
